# Source: article PMC4336329 (PLoS ONE, 2015)
# Hit rate of the full screen: of about 310,000 compounds, about 2,200 (0.71%) showed an effect of 50% or more. The effect is printed as a negative number. The list shows a part of the results.
# Target: human ether-à-go-go-related gene (hERG) potassium channel (human, UniProt Q12809)
# Test: primary screen, population patch clamp on CHO cells stably expressing hERG
# Chain of human ether-à-go-go-related gene (hERG) potassium channel (Q12809 whole entry, looked up): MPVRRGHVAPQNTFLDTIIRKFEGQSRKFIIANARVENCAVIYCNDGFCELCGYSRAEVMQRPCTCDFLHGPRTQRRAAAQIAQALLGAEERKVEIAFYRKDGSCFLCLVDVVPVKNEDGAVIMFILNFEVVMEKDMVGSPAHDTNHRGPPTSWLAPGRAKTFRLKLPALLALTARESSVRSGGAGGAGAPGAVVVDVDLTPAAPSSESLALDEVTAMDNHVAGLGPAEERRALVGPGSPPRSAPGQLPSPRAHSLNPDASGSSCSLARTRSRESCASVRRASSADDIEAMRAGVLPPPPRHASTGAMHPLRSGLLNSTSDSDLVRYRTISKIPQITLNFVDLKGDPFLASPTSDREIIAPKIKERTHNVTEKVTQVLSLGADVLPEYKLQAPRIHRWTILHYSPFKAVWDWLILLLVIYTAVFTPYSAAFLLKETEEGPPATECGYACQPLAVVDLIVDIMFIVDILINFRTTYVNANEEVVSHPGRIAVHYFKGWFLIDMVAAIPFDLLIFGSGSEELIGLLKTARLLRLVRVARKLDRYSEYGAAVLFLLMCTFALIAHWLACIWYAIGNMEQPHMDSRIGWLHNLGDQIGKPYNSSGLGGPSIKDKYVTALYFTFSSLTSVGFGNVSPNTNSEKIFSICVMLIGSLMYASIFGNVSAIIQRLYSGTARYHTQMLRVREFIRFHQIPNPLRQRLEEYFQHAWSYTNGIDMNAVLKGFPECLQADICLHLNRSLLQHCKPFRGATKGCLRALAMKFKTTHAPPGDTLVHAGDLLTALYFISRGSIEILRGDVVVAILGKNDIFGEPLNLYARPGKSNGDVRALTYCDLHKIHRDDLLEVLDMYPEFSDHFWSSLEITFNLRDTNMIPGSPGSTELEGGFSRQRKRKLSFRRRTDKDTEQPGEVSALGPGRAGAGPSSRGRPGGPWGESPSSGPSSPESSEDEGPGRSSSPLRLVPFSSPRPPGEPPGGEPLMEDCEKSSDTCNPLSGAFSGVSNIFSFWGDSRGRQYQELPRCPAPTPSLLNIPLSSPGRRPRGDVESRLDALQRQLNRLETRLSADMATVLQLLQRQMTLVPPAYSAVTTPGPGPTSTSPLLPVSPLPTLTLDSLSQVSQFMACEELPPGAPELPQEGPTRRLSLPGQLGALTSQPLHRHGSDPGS
row,SMILES,"hERG current change (%, negative = inhibition) at 1uM [%]"
1,Cc1ccc(NS(=O)(=O)c2ccc3c(c2)CCC(=O)N3)cc1C,11.2
2,COC(=O)c1ccccc1Sc1snnc1C,14.4
3,COc1ccc(OCc2cc(C(=O)NC3CCOC(C)(C)C3)no2)c2ccccc12 (stereo not drawn),14.7
4,O=C(COc1ccc(S(=O)(=O)N2CCOCC2)cc1)N1CCc2ccccc2C1,-23.7
5,COc1nc(-c2ccc(C)cc2)ccc1-c1noc(-c2cccnc2)n1,12
6,Cc1nn(C)c(C)c1S(=O)(=O)NCc1cccs1,9.59
7,CCOC(=O)c1c(C)oc2cc(Cl)c(O)c(CN(C)C)c12,8.79
8,COCCN(CCOC)S(=O)(=O)c1ccc(C(=O)NCCCN2CCOCC2)cc1,14.8
9,CCCCCOC(=O)C1=C(C)NC(=O)NC1c1ccc2c(c1)OCO2 (stereo not drawn),15.1
10,O=C(NCCNc1ccccc1[N+](=O)[O-])c1ccccc1F,10.4
11,Cc1cccc2sc(NC(=O)CN3C(=O)c4ccccc4C3=O)nc12,13.7
12,COc1cccc(NC(=S)NC2CC3CCCC(C2)N3CC(C)C)c1 (stereo not drawn),-8.61
13,Cc1cc(CN2CCC(n3nccc3NC(=O)c3ccccc3C)CC2)n[nH]1,-7.51
14,CC(C)NC(=O)C(=O)NC1CCCCCC1,-5.48
15,CCCCn1c(=O)c(F)cn(Cc2ccc(OC)c([N+](=O)[O-])c2)c1=O,1.43
16,N#Cc1c(SCC(N)=O)nsc1SCc1ccccc1Cl,10.6
17,Cc1cc2nn(-c3ccc(Cl)cc3)nc2cc1N,14
18,COc1ccc(NC(=O)COC(=O)COc2ccc(Br)cc2)cc1,19.3
19,O=S(=O)(Cc1ccc(Cl)cc1)N1CCCCCC1,8.21
20,CC(C)Oc1ccc(C(CC(=O)O)NC(=O)Cc2ccc(Cl)cc2)cc1 (stereo not drawn),8.96
21,CCC1CCCCN1CCCNC(=O)c1cn(CC)c2ccc(S(=O)(=O)N(C)C3CCCCC3)cc2c1=O (stereo not drawn),-75.5
22,CC(=O)c1csc(-c2cccc(-c3nc4ccc(Cl)cn4c3NC3CCCCC3)c2)c1.O=C(O)C(F)(F)F,21.4
23,c1csc(C2C3=C(Nc4ncnn42)c2ccccc2OC3)c1 (stereo not drawn),17.9

row,SMILES,"hERG current change (%, negative = inhibition) at 1uM [%]"
1,Cc1cc2nc(-c3ccc(NC(=O)c4cccnc4)cc3)oc2cc1C,12
2,CC(=O)NC(C(=O)c1ccccc1)N1CCCCC1 (stereo not drawn),4.13
3,COC(=O)c1ccc(N2CCN(C)CC2)c(NC(=O)COc2ccccc2Cl)c1,11.8
4,CC1=NN(c2ccc(C(=O)OC(C)C)cc2)C(=O)/C1=C\C=C\c1ccco1,7.33
5,COCCn1cnc2c(c1=O)c1nc3ccccc3nc1n2/N=C/c1cccc(OC)c1,6.83
6,Cc1cccc(NC(=O)Nc2ccc(F)cc2)n1,11.2
7,CCNc1nc(NC(C)C)nc(N2CC(=O)N(CC(=O)OCC)C2=N)n1,-0.616
8,CCOc1cc(/C=C(/C#N)c2nc3ccccc3[nH]2)ccc1Oc1ccc([N+](=O)[O-])cn1,8.93
9,CCc1cccc(NC(=O)CN(C)S(=O)(=O)c2cnc[nH]2)c1,15.9
10,CCOC(=O)N1CCC(N(CCOC)C(=O)Nc2ccc(Cl)c(Cl)c2)CC1,-4.37
11,CCCCCCOC(=O)C(C#N)c1nc2ccccc2nc1N1CCOCC1 (stereo not drawn),2.31
12,COc1ccc(OCC(O)Cn2c(Br)nc3c2c(=O)[nH]c(=O)n3C)cc1 (stereo not drawn),4.22
13,Cn1nnnc1SCC(=O)Nc1cc(C(=O)O)cc(C(=O)O)c1,3.9
14,CCOC(=O)c1nn(-c2c(C)n(C)n(-c3ccccc3)c2=O)cc1O,17.6
15,COc1ccc(NC(=O)CSc2nc3sc(C)cc3c(=O)n2C)c(OC)c1,4.2
16,Cc1cc2cc(CCNS(C)(=O)=O)c(=O)[nH]c2cc1C,11.5
17,COc1ccc(CCNC(=O)c2cc(S(=O)(=O)N(C)c3ccccc3)ccc2Cl)cc1,2.07
18,Cc1cc2c(n1-c1ccc(C(=O)O)cc1)CCCCC2,6.11
19,O=C(Nc1nnc(C2CC2)o1)c1ccc(S(=O)(=O)N2CCCc3ccccc32)cc1,1.64
20,CCOC(=O)c1c(NC(=O)C2CCCO2)sc(C(=O)OC(C)(C)C)c1C (stereo not drawn),11.6
21,CCOc1cc2c(cc1OCC)CN(CC(=O)Nc1ccccc1C(=O)NC1CC1)CC2,-8.52
22,CCOC(=O)N1CCN(S(=O)(=O)c2ccc(NC(C)=O)cc2)CC1,17.8
23,CC1(C)CC(=O)c2cnc3c(C#N)cnn3c2C1,8.53

row,SMILES,"hERG current change (%, negative = inhibition) at 1uM [%]"
1,Cn1c(CCNC(=O)c2ccco2)nc2cc(NS(=O)(=O)c3ccc(Cl)cc3)ccc21,-15.2
2,Cc1cc(C)c(NC(=O)c2cccs2)c(C)c1NC(=O)c1cccs1,10.9
3,C=CCNC(=O)NC(=O)COC(=O)/C(C#N)=C/c1cc(C)n(CCC(C)C)c1C,6.4
4,Cn1c(SCC(=O)O)nnc1C1CCCCC1,7.6
5,COC(=O)CSc1nnc(Cc2cc(=O)[nH]c(=O)[nH]2)n1-c1cccc(OC)c1,8.36
6,O=Cc1ccc(OCC(=O)N2CCOCC2)cc1,14
7,COc1cc(/C(C)=N/NC(=O)c2nnn(-c3nonc3N)c2-c2cccs2)ccc1O,-2.99
8,CCOc1ccccc1OCCCC(=O)ON=C(N)c1ccccc1,12.3
9,Cc1ccc2c(c1)CCCN2C(=O)c1cc2ccccc2oc1=O,-3.54
10,O=C(CSc1nccn1-c1ccccc1)c1ccc(Br)cc1,5.49
11,Cc1cc2oc3c(c(=O)c2cc1C)C(c1ccc(C(C)C)cc1)N(CCCN1CCOCC1)C3=O (stereo not drawn),13
12,[O-]/C(=C(\C(=S)Nc1cccc2ccccc12)[n+]1ccccc1)c1ccc(Cl)s1,9.78
13,Cc1ccc(C(=O)N/N=C/c2ccc(-c3cccc(C(F)(F)F)c3)o2)cn1,8.06
14,CC(OC(=O)CNC(=O)c1cccc(F)c1)C(=O)NC1CCCCC1C (stereo not drawn),10.6
15,CN(C)c1ccc(CNC(=O)CCS(=O)(=O)c2ccc3c(c2)n(C)c(=O)c(=O)n3C)cc1,9.05
16,COc1ccc(C2/C(=C(/O)c3ccc(C)cc3)C(=O)C(=O)N2c2ccccn2)cc1 (stereo not drawn),14.7
17,Cc1c(NC(=O)COc2ncnc3c(Cl)cc(Cl)cc23)c(=O)n(-c2ccccc2)n1C,7.9
18,O=C(NCc1ccc2c(c1)OCO2)NC1CCCCC1,12.7
19,COc1cccc(C(=O)Nc2nc(-c3ccncc3)cs2)c1,-5.93
20,CCc1ccc(N2CC(C(=O)N/N=C/c3ccccc3)CC2=O)cc1 (stereo not drawn),7.08
21,Cn1ccnc1SCC(=O)Nc1ccc2c(c1)OC(F)(F)O2,11.7
22,CCc1ccccc1N/C(=N\S(=O)(=O)c1ccccc1)C(F)(F)F,3.34
23,COc1ccccc1N1CCN(S(=O)(=O)CCNC(=O)c2cccc(F)c2)CC1,4.86

row,SMILES,"hERG current change (%, negative = inhibition) at 1uM [%]"
1,Cn1cccc1/C=C(/C#N)C(N)=S,2.12
2,Cl.Oc1ccc2c3c1O[C@H]1c4[nH]c5ccccc5c4C[C@@]4(O)[C@@H](C2)N(CC2CC2)CC[C@]314,-29.7
3,Cc1cc(NC(=O)CCCC(=O)NCc2ccccc2)no1,10.8
4,CC(C)CC(C(=O)NC1CCCC1)N(Cc1ccc2c(c1)OCO2)C(=O)c1snc(C(N)=O)c1N (stereo not drawn),9.2
5,Clc1ccccc1CN1CCN(c2cccc3[nH]ccc23)CC1,9.14
6,C=CCn1c(CC(=O)Nc2cccc(OC)c2)nnc1SCC(=O)NC1CCCCC1,8.17
7,CC1(C)Cc2nc(-c3ccccc3)n3cnnc3c2CO1,4.47
8,Cl.Nc1nc(N2CCN(C/C=C/c3ccccc3)CC2)nc2ccccc12,-28.3
9,CC(=O)c1ccc(N2CCN(C(=S)Nc3ccccc3C(F)(F)F)CC2)cc1,13.7
10,COc1cc(OC)cc(C(=O)OCC(=O)N2CCCC2)c1,12.3
11,Cc1ccc(-c2nc3ccccc3c(=O)n2-c2cccc(O)c2)cc1,15.9
12,Cc1cnc(NC(=O)CCNC(=O)c2ccccc2Cl)s1,13.6
13,COc1cc(CCC(=O)O)on1,13.3
14,O=C(CN1CCOCC1)N(c1ccccc1)c1ccc2ccccc2c1,-1.4
15,CC1(c2ccccc2)NC(=O)N(CC#N)C1=O (stereo not drawn),4.85
16,CC(NC(=O)Cn1c(=O)[nH]c2ccsc2c1=O)C12CC3CC(CC(C3)C1)C2 (stereo not drawn),7.3
17,COC(=O)c1ccc(-c2nc3ccccc3[nH]2)cc1,10.5
18,CCN1CCN(C(=O)CN(Cc2ccccc2)S(C)(=O)=O)CC1,2.89
19,Nc1nnnn1CC(=O)N/N=C/c1cccs1,13.4
20,O=C(c1ccc(F)cc1)N(Cc1ccccc1)C1CCS(=O)(=O)C1 (stereo not drawn),10.9
21,Cn1c(N)c(C(=O)COC(=O)C2(c3ccccc3F)CCCC2)c(=O)n(C)c1=O,0.464
